Patent US10299477B2 (priority 2015, dated 2019)

test system: Colletotrichum orbiculare; details: 250 ppm, sprayed 2.5 ml/pot before inoculation; evaluated 6-10 days after inoculation

Row | Compound | Test H (control value class, anthracnose on cucumber)
1 | CCn1c(-c2c(F)cc(Br)cc2F)c(-c2cc(F)ccc2Cl)ccc1=O [Compound 692] | L (L shows 50% or less of control values)
2 | CCn1c(-c2c(F)cc(OC)cc2F)c(-c2ccccc2F)cc(C)c1=O [Compound 569] | H (H shows more than 50% of control values)
3 | COc1cc(F)c(-c2c(-c3ccc(F)cc3Cl)cc(C)c(=O)n2C)c(F)c1 [Compound 621] | H (H shows more than 50% of control values)
4 | CCn1c(-c2c(F)cc(F)cc2F)c(-c2cc(OC)cc(OC)c2Cl)ccc1=O [Compound 696] | H (H shows more than 50% of control values)
5 | CCn1c(-c2c(F)cccc2F)c(-c2cc(OC)ccc2Cl)ccc1=O [Compound 582] | H (H shows more than 50% of control values)
6 | CCn1c(-c2c(F)cc(F)cc2F)c(-c2ccccc2Br)cc(Cl)c1=O [Compound 652] | H (H shows more than 50% of control values)
7 | COc1ccc(Cl)c(-c2cc(C)c(=O)n(C)c2-c2c(F)cc(F)cc2F)c1 [Compound 726] | H (H shows more than 50% of control values)
8 | Cc1cc(-c2ccccc2Cl)c(-c2c(F)cc(F)cc2F)n(C)c1=O [Compound 731] | H (H shows more than 50% of control values)
9 | CCn1c(-c2c(F)cc(F)cc2F)c(-c2cc(F)cc(F)c2Cl)ccc1=O [Compound 584] | H (H shows more than 50% of control values)
10 | Cn1c(-c2c(F)cc(F)cc2F)c(-c2ccc(F)cc2Cl)ccc1=O [Compound 576] | H (H shows more than 50% of control values)
11 | CCn1c(-c2c(F)cc(F)cc2F)c(-c2ccccc2Cl)cc(C)c1=O [Compound 687] | H (H shows more than 50% of control values)
12 | CCn1c(-c2c(F)cc(Br)cc2F)c(-c2cc(F)ccc2Cl)cc(Cl)c1=O [Compound 706] | L (L shows 50% or less of control values)
13 | CCn1c(-c2c(F)cc(OC)cc2F)c(-c2cccc(F)c2F)cc(Cl)c1=O [Compound 590] | H (H shows more than 50% of control values)
14 | CCOc1cc(F)c(-c2c(-c3cccc(F)c3C)cc(C)c(=O)n2CC)c(F)c1 [Compound 713] | H (H shows more than 50% of control values)
15 | CCn1c(-c2c(F)cccc2F)c(-c2ccc(OC)cc2Cl)cc(Br)c1=O [Compound 737] | H (H shows more than 50% of control values)
16 | CCn1c(-c2c(F)cc(C)cc2F)c(-c2cc(F)ccc2Cl)ccc1=O [Compound 707] | L (L shows 50% or less of control values)
17 | Cc1cc(-c2ccccc2F)c(-c2c(F)cc(F)cc2F)n(C)c1=O [Compound 571] | H (H shows more than 50% of control values)
18 | CCn1c(-c2c(F)cc(OC)cc2F)c(-c2ccccc2Br)cc(Cl)c1=O [Compound 668] | H (H shows more than 50% of control values)
19 | CCn1c(-c2c(F)cc(F)cc2F)c(-c2cccc(OC)c2Cl)cc(C)c1=O [Compound 632] | H (H shows more than 50% of control values)
20 | CCn1c(-c2c(F)cc(Cl)cc2F)c(-c2cc(F)ccc2Cl)ccc1=O [Compound 601] | H (H shows more than 50% of control values)
21 | COc1cc(F)c(-c2c(-c3cc(F)cc(F)c3Cl)ccc(=O)n2C)c(F)c1 [Compound 676] | H (H shows more than 50% of control values)
22 | CCN1C(=O)CCC(c2cc(F)cc(F)c2Cl)=C1c1c(F)cc(F)cc1F [Compound 583] | H (H shows more than 50% of control values)

same assay, conditions: in vivo

Row | Compound | Test H (control value class) | Test H control value
23 | CCn1c(-c2c(F)cc(OC)cc2F)c(-c2ccccc2Cl)ccc1=O [Compound 430] | H (key: H shows more than 50% of control values; L shows 50% or less of control values) | 
24 | CCn1c(-c2c(F)cccc2Br)c(-c2cc(OC)cc(OC)c2Br)ccc1=O [Compound 176] |  | H (key: H shows more than 50% of control values; L shows 50% or less of control values)
25 | CCn1c(-c2c(F)cccc2F)c(-c2ccc(Cl)cc2F)cc(Cl)c1=O [Compound 417] | L (key: H shows more than 50% of control values; L shows 50% or less of control values) | 
26 | Cc1cc(-c2cc(F)cc(F)c2F)c(-c2c(F)cccc2F)n(C)c1=O [Compound 457] | H (key: H shows more than 50% of control values; L shows 50% or less of control values) | 
27 | CCn1c(-c2c(F)cccc2F)c(-c2cc(F)ccc2F)cc(C)c1=O [Compound 497] | H (key: H shows more than 50% of control values; L shows 50% or less of control values) | 
28 | CCn1c(-c2c(F)cccc2F)c(-c2ccccc2C(F)(F)F)ccc1=O [Compound 146] |  | L (key: H shows more than 50% of control values; L shows 50% or less of control values)
29 | Cn1c(-c2c(F)cc(F)cc2F)c(-c2cccc(F)c2F)cc(Br)c1=O [Compound 560] | H (key: H shows more than 50% of control values; L shows 50% or less of control values) | 
30 | CCn1c(-c2c(F)cccc2F)c(-c2cc(OC)ccc2Cl)cc(Cl)c1=O [Compound 54, 3-chloro-5-(2-chloro-5-methoxyphenyl)-6-(2,6-difluorophenyl)-1-ethylpyridine-2(1H)-one] |  | H (key: H shows more than 50% of control values; L shows 50% or less of control values)
31 | CCn1c(-c2c(F)cccc2Br)c(-c2cc(OC)cc(OC)c2Cl)ccc1=O [Compound 177] |  | H (key: H shows more than 50% of control values; L shows 50% or less of control values)
32 | O=c1ccc(-c2c(F)cccc2Cl)c(-c2c(F)cccc2F)n1CC(F)F [Compound 406] | H (key: H shows more than 50% of control values; L shows 50% or less of control values) | 
33 | Cn1c(-c2c(F)cccc2F)c(-c2cc(F)ccc2F)cc(Cl)c1=O [Compound 484] | H (key: H shows more than 50% of control values; L shows 50% or less of control values) | 
34 | Cn1c(-c2c(F)cccc2F)c(-c2c(F)c(F)c(F)c(F)c2F)cc(Cl)c1=O [Compound 374] | H (key: H shows more than 50% of control values; L shows 50% or less of control values) | 
35 | O=c1ccc(-c2cc(F)ccc2Cl)c(-c2c(F)cccc2F)n1CC(F)F [Compound 391] | H (key: H shows more than 50% of control values; L shows 50% or less of control values) | 
36 | COc1cc(F)c(-c2c(-c3ccccc3)cc(Br)c(=O)n2C)c(F)c1 [Compound 782] | H (key: H shows more than 50% of control values; L shows 50% or less of control values) | 
37 | CCn1c(-c2c(F)cccc2F)c(-c2cccc(F)c2Cl)cc(Cl)c1=O [Compound 507] | H (key: H shows more than 50% of control values; L shows 50% or less of control values) | 
38 | Cn1c(-c2c(F)cc(F)cc2F)c(-c2cc(F)cc(F)c2Br)ccc1=O [Compound 815] | H (key: H shows more than 50% of control values; L shows 50% or less of control values) | 
39 | CCn1c(-c2c(F)cc(F)cc2F)c(-c2cccc(F)c2Cl)cc(Cl)c1=O [Compound 488] | H (key: H shows more than 50% of control values; L shows 50% or less of control values) | 
40 | COc1ccc(Cl)c(-c2cc(Cl)c(=O)n(C)c2-c2c(F)cc(F)cc2F)c1 [Compound 416] | H (key: H shows more than 50% of control values; L shows 50% or less of control values) | 
41 | COc1ccc(Cl)c(-c2cc(Cl)c(=O)n(CC(F)(F)F)c2-c2c(F)cccc2F)c1 [Compound 410] | H (key: H shows more than 50% of control values; L shows 50% or less of control values) | 
42 | CCn1c(-c2c(F)cc(F)cc2F)c(-c2ccccc2)ccc1=O [Compound 762] | H (key: H shows more than 50% of control values; L shows 50% or less of control values) | 
43 | C#CCN1C(=O)CCC(c2cc(OC)ccc2Cl)=C1c1c(F)cccc1F [Compound 456] | H (key: H shows more than 50% of control values; L shows 50% or less of control values) | 
44 | Cn1c(-c2c(F)cccc2F)c(-c2cccc(F)c2)cc(Cl)c1=O [Compound 169] |  | H (key: H shows more than 50% of control values; L shows 50% or less of control values)
45 | CCn1c(-c2c(F)cc(OC)cc2F)c(-c2cc(F)cc(F)c2)ccc1=O [Compound 790] | H (key: H shows more than 50% of control values; L shows 50% or less of control values) | 
46 | Cn1c(-c2c(F)cccc2F)c(-c2cc(F)cc(F)c2F)cc(Br)c1=O [Compound 443] | H (key: H shows more than 50% of control values; L shows 50% or less of control values) | 
47 | O=c1ccc(-c2cc(Cl)ccc2Cl)c(-c2c(F)cccc2F)n1CC(F)F [Compound 448] | H (key: H shows more than 50% of control values; L shows 50% or less of control values) | 
48 | COCn1c(-c2c(F)cccc2F)c(-c2cc(OC)ccc2Cl)ccc1=O [Compound 402] | H (key: H shows more than 50% of control values; L shows 50% or less of control values) | 
49 | O=c1ccc(-c2cc(Cl)cc(Cl)c2Cl)c(-c2c(F)cccc2F)n1CC(F)F [Compound 454] | H (key: H shows more than 50% of control values; L shows 50% or less of control values) | 
